Assay results reported in article PMC12006517.
These are yes or no findings as the source states them, for the method shown. In cells and extracts the contact can be indirect. Some entries that bind do so weakly or less than the wild type. Values belong to the substance of their own block, whether it stands above or below them.

Protein sequences, listed by entry. Tags and fused reporters are not part of them. Lines headed by an entry give the natural chain unless they say otherwise; changes in a name come on top.
UniProt Q93008: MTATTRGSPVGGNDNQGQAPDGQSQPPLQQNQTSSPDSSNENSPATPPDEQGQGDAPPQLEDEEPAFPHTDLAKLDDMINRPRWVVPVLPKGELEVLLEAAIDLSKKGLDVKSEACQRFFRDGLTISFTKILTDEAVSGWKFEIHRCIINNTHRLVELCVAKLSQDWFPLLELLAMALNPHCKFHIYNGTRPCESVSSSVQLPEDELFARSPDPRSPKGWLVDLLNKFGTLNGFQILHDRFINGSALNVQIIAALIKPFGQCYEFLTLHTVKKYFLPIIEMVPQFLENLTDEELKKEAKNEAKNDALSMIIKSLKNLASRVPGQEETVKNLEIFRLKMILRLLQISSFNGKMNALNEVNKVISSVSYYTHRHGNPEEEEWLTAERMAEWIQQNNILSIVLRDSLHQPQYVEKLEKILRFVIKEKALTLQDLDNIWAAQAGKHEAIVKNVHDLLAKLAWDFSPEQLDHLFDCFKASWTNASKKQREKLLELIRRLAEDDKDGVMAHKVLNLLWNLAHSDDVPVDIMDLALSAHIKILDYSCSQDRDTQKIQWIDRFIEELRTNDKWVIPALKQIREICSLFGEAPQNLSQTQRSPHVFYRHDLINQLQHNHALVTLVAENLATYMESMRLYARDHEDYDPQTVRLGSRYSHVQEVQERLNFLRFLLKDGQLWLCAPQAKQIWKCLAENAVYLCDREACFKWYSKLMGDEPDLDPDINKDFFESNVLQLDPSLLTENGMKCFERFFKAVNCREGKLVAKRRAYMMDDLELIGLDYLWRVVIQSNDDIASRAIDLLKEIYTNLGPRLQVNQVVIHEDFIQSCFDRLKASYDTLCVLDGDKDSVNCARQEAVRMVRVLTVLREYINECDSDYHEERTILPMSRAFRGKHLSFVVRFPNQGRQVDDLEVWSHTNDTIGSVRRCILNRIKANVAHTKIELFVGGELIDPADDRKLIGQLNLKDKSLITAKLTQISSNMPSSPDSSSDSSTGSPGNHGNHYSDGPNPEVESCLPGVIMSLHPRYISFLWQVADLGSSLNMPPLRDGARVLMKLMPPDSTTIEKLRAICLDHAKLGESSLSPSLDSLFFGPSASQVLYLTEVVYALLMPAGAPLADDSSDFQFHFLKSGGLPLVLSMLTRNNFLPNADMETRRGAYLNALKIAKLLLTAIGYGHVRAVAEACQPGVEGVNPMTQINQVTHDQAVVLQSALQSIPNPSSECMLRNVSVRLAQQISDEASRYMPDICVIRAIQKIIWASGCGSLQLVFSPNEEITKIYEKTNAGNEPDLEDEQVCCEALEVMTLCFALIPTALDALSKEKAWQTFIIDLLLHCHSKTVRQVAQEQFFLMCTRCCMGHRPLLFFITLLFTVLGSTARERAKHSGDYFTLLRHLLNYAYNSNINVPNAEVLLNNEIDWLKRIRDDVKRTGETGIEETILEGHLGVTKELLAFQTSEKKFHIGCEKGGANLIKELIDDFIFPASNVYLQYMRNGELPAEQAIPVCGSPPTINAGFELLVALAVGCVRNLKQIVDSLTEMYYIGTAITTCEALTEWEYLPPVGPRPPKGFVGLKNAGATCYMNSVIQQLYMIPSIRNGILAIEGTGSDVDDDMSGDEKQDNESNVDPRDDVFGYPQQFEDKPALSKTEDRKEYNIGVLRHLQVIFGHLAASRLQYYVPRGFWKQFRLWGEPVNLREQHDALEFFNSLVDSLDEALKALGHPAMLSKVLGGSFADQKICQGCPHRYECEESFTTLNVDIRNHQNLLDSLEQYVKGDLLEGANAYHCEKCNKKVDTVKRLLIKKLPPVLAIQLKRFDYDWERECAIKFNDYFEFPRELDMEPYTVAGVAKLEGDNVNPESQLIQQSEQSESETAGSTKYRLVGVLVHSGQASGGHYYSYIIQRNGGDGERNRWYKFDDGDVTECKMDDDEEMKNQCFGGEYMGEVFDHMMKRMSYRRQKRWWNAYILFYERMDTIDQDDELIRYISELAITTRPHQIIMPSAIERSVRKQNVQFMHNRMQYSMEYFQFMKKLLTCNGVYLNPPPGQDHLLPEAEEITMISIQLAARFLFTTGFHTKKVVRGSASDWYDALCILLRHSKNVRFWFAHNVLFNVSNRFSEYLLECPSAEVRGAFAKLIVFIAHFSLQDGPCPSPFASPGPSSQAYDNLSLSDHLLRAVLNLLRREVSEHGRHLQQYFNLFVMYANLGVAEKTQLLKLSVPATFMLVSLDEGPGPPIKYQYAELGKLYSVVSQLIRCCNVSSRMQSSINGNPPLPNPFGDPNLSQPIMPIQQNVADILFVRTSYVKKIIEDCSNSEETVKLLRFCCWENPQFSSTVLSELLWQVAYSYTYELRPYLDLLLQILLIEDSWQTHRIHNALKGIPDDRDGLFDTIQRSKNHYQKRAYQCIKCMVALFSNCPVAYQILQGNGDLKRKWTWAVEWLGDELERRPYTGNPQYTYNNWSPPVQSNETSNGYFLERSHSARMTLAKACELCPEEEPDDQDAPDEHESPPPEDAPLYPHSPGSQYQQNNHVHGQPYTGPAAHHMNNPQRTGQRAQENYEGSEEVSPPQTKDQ
UniProt P70398: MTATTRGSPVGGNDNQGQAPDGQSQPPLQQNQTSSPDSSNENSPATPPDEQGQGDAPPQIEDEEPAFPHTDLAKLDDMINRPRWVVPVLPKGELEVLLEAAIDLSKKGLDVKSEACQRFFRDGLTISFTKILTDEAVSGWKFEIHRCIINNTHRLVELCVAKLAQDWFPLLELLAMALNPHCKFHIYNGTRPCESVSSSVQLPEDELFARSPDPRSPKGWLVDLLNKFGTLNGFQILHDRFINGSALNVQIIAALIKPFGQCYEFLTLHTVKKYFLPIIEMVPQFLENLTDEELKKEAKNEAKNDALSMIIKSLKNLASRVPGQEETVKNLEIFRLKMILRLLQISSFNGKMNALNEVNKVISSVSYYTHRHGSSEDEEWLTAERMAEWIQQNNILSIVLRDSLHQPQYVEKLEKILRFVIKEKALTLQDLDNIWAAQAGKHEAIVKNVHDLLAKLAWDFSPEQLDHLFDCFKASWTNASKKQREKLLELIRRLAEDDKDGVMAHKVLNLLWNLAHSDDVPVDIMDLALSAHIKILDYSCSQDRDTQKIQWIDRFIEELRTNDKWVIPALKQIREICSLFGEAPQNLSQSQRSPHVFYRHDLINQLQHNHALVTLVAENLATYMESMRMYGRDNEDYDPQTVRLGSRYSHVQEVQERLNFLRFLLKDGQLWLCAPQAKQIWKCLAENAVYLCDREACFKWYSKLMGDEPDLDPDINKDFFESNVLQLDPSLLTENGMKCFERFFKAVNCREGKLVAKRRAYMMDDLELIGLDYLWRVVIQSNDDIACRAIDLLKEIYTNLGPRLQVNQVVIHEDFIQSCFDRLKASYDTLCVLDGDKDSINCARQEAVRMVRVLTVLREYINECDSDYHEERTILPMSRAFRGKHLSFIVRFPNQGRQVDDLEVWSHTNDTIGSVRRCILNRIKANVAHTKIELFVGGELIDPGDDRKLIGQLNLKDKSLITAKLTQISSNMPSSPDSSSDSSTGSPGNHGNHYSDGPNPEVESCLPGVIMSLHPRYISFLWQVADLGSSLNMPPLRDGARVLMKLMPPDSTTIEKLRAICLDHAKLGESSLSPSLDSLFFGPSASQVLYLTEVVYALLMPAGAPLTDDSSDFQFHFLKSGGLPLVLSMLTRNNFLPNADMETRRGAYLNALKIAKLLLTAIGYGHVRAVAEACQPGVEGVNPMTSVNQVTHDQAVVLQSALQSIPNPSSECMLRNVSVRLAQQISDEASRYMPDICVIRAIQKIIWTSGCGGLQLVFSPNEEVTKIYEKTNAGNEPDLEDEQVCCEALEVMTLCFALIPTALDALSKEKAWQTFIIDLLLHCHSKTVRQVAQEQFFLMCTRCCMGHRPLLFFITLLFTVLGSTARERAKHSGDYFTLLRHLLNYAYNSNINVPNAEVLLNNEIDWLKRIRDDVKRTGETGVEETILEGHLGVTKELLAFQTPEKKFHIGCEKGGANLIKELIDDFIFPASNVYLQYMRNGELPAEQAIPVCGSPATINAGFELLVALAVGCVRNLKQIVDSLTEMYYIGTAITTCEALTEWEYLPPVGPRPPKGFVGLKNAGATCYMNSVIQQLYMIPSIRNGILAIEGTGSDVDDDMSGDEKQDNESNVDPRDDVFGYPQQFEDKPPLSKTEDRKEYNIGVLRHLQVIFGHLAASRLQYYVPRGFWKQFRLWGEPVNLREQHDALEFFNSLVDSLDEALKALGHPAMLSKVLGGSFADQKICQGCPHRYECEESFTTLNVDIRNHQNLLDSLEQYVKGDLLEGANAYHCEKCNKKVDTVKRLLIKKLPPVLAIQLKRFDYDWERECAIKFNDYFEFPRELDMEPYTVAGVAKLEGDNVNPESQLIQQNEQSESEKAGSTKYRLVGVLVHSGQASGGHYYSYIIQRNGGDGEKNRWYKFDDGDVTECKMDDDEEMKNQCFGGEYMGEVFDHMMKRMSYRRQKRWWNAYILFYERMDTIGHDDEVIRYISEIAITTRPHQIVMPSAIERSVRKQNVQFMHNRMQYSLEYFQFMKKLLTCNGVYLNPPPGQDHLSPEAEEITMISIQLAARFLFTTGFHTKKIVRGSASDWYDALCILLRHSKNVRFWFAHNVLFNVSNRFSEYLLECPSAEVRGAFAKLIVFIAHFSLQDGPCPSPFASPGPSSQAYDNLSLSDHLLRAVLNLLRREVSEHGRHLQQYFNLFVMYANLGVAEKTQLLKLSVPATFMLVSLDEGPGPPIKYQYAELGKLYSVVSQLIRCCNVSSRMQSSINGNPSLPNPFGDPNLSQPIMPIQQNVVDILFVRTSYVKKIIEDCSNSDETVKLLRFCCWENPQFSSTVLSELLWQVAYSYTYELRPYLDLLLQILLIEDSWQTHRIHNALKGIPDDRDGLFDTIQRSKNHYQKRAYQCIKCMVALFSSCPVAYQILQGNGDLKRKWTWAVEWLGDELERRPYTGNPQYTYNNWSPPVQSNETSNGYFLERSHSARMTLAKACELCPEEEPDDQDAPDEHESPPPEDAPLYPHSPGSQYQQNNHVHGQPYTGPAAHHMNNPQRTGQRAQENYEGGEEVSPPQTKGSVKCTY
UniProt Q99814: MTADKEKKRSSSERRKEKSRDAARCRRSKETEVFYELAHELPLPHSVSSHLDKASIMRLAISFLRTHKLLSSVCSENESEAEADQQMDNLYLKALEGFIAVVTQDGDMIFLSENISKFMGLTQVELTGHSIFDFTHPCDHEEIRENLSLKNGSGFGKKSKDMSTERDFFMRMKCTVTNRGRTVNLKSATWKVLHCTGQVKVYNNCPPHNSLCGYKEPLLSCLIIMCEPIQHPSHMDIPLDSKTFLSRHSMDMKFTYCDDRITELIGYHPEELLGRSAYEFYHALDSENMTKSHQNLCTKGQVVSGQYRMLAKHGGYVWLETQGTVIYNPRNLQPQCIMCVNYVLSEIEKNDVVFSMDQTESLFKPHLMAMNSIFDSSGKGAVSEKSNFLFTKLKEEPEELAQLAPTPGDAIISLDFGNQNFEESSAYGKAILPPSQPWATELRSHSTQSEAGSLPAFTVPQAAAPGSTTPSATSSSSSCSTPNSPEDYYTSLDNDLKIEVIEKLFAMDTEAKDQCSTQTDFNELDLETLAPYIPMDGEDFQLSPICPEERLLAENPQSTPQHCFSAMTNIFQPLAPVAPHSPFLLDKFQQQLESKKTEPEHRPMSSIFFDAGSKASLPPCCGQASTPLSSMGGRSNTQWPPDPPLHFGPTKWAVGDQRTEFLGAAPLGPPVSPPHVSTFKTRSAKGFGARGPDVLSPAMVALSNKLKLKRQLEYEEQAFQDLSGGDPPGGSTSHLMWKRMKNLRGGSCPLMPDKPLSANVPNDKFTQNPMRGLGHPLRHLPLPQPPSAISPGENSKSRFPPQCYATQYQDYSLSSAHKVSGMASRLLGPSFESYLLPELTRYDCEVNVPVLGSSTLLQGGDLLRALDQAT

Assays:
[1] = target: Flag-tagged full length USP9X wild-type (UniProt Q93008); experiment: co-IP; over-expressed Flag-USP9X (whole or truncated) and HA-HIF-2α (whole, truncated or 2dPA mutant); HEK293T named for Fig. 3B, C; lysis buffer 50 mM Tris-HCl pH 7.4, 150 mM NaCl, 5 mM EDTA, 0.5% NP-40; immunoblot
[2] = target: USP9X (endogenous, CAOV3) (human (endogenous in CAOV3)) (UniProt Q93008); experiment: proximity ligation; Duolink PLA on fixed, permeabilised CAOV3 and ID8 cells, with or without TGF-β1 (5 ng/mL) for 24 h
[3] = target: USP9X (endogenous, CAOV3) (human (endogenous in CAOV3)) (UniProt Q93008); experiment: co-IP; endogenous proteins in CAOV3 and ID8 lysates; antibody on protein A/G agarose; lysis buffer 50 mM Tris-HCl pH 7.4, 150 mM NaCl, 5 mM EDTA, 0.5% NP-40; also after TGF-β1 (5 ng/mL) and/or 1% O2 for 24 h
[4] = target: USP9X (endogenous, ID8) (mouse (endogenous in ID8)) (UniProt P70398); experiment: proximity ligation; Duolink PLA on fixed, permeabilised CAOV3 and ID8 cells, with or without TGF-β1 (5 ng/mL) for 24 h
[5] = target: USP9X (endogenous, ID8) (mouse (endogenous in ID8)) (UniProt P70398); experiment: co-IP; endogenous proteins in CAOV3 and ID8 lysates; antibody on protein A/G agarose; lysis buffer 50 mM Tris-HCl pH 7.4, 150 mM NaCl, 5 mM EDTA, 0.5% NP-40; also after TGF-β1 (5 ng/mL) and/or 1% O2 for 24 h

binding [1]: no binding
Substance: HA-tagged HIF-2α P405A/P531A (2dPA) mutant (from UniProt Q99814 1-870)

binding [1]: binds
Substance: HA-tagged full-length HIF-2α (from UniProt Q99814 1-870)

binding [2]: binds
binding [3]: binds
Substance: HIF-2α (endogenous, CAOV3) (from UniProt Q99814 1-870)

binding [4]: binds
binding [5]: binds
Substance: HIF-2α (endogenous, ID8) (from UniProt P97481 1-874)
